A lower IC50 marks a more sensitive line; a limit (>, <) means that the fit lies beyond the doses tested. For AUC the same curve is integrated over the 256-fold range of doses and scaled to a fraction; it is 1 without any effect and falls as sensitivity rises. For some assays here: Where the top dose is marked as inferred, it was derived from the fitted curves, not read from the paper. For some assays here: Drugs with an entry number were screened twice under separate entries, and the two screens often disagree.
Key:
Assay in all cases: Viability of human cancer cell lines after 72 h of drug (GDSC screen)
Elesclomol = compound: CN(NC(=O)CC(=O)NN(C)C(=S)c1ccccc1)C(=S)c1ccccc1 [Elesclomol]; settings: top dose 0.2 µM; top dose inferred
Description: (§1)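 Human cancer cell lines in 384-well plates, medium with 10% serum, drug for 72 h over a 256-fold dose range (nine 2-fold or five 4-fold steps up to the top dose). Adherent lines were fixed and stained with the nucleic acid dye Syto60, suspension lines read with resazurin; signal relative to control wells, capped at 0 and 100%. One two-parameter sigmoid per drug and line, fitted in a mixed model over all curves with the slope shared within a line.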

Tamoxifen = compound: CC/C(=C(\c1ccccc1)c1ccc(OCCN(C)C)cc1)c1ccccc1 [Tamoxifen]; settings: top dose 5 µM
Description: as §1

BX-912 = compound: O=C(Nc1cccc(Nc2ncc(Br)c(NCCc3cnc[nH]3)n2)c1)N1CCCC1 [BX-912]; settings: top dose 10.24 µM; top dose inferred
Description: as §1

LAQ824 = compound: O=C(/C=C/c1ccc(CN(CCO)CCc2c[nH]c3ccccc23)cc1)NO [LAQ824]; settings: top dose 1.024 µM; top dose inferred
Description: as §1

Masitinib = compound: Cc1ccc(NC(=O)c2ccc(CN3CCN(C)CC3)cc2)cc1Nc1nc(-c2cccnc2)cs1 [Masitinib]; settings: top dose 20 µM
Description: as §1

OSI-930 = compound: O=C(Nc1ccc(OC(F)(F)F)cc1)c1sccc1NCc1ccnc2ccccc12 [OSI-930]; settings: top dose 10.24 µM
Description: as §1

NSC-87877 = compound: O=S(=O)(O)c1ccc2cc(N=Nc3cc(S(=O)(=O)O)c4cccnc4c3O)ccc2c1 [NSC-87877]; settings: top dose 16 µM; top dose inferred
Description: as §1

VNLG/124 = compound: CCCC(=O)OCc1ccc(OC(=O)/C=C(C)/C=C/C=C(C)/C=C/C2=C(C)CCCC2(C)C)cc1 [VNLG/124]; settings: top dose 5.12 µM; top dose inferred
Description: as §1

Bleomycin = compound: Cc1c(N)nc([C@H](CC(N)=O)NC[C@H](N)C(N)=O)nc1C(=O)N[C@H](C(=O)N[C@H](C)[C@@H](O)[C@H](C)C(=O)N[C@H](C(=O)NCCc1nc(-c2nc(C(=O)NCCC[S+](C)C)cs2)cs1)[C@@H](C)O)[C@@H](OC1OC(CO)C(O)C(O)C1OC1OC(CO)C(O)C(OC(N)=O)C1O)c1cnc[nH]1 [Bleomycin]
Description: as §1

[1] = top dose 50 µM, screen: GDSC drug entry 1378, top dose inferred
[2] = top dose 64 µM, screen: GDSC drug entry 190

Cell Line	AUC (Elesclomol)	IC50 (Elesclomol) [µM]	AUC (Tamoxifen)	IC50 (Tamoxifen) [µM]	AUC (BX-912)	IC50 (BX-912) [µM]	AUC (LAQ824)	IC50 (LAQ824) [µM]	AUC (Masitinib)	IC50 (Masitinib) [µM]	AUC (OSI-930)	IC50 (OSI-930) [µM]	AUC (NSC-87877)	IC50 (NSC-87877) [µM]	AUC (VNLG/124)	IC50 (VNLG/124) [µM]	AUC (Bleomycin; [1])	IC50 (Bleomycin; [1]) [µM]	AUC (Bleomycin; [2])	IC50 (Bleomycin; [2]) [µM]
PA-TU-8902 (pancreas, adherent)	0.614	0.0272	0.981	> 5	0.855	> 10.2	0.49	0.0598	0.903	> 20	0.954	> 10.2	0.983	> 16	0.966	> 5.12	0.763	20.9	0.562	6.1
PANC-04-03 (pancreas, adherent)	0.837	> 0.2	0.974	> 5	0.978	> 10.2	0.608	0.152	0.978	> 20	0.978	> 10.2	0.912	> 16	0.976	> 5.12	0.858	> 50	0.466	3.05
NCI-H1417 (small cell lung carcinoma, suspension)	0.469	0.0101	0.964	> 5	0.676	2.19	0.241	0.00969	0.871	> 20	0.909	> 10.2	0.98	> 16	0.966	> 5.12	0.938	> 50	0.797	36.8
SK-UT-1 (soft tissue, adherent)	0.533	0.0152	0.984	> 5	0.931	> 10.2	0.541	0.082	0.956	> 20	0.973	> 10.2	0.967	> 16	0.988	> 5.12	0.072	< 0.195	0.081	< 0.25
SAS (head and neck, adherent)	0.61	0.026	0.98	> 5	0.9	> 10.2	0.567	0.0995	0.929	> 20	0.944	> 10.2	0.975	> 16	0.981	> 5.12	0.16	0.242	0.494	3.85
EJM (lymphoid neoplasm, semi-adherent)	0.461	0.00997	0.992	> 5	0.908	> 10.2	0.413	0.0386	0.893	17.2	0.962	> 10.2	0.982	> 16	0.967	> 5.12	0.946	> 50	0.961	> 64
NCI-H1693 (lung adenocarcinoma, adherent)	0.477	0.0104	0.973	> 5	0.95	> 10.2	0.533	0.083	0.938	> 20	0.977	> 10.2	0.975	> 16	0.977	> 5.12	0.706	17.2	0.625	10.9
HAL-01 (lymphoblastic leukaemia, suspension)	0.444	0.00896	0.95	> 5	0.914	> 10.2	0.441	0.0451	0.828	10.4	0.95	> 10.2	0.978	> 16	0.957	> 5.12	0.509	3.3	0.022	< 0.25
ROS-50 (B-cell leukaemia, suspension)	0.894	> 0.2	0.979	> 5	0.908	> 10.2	0.503	0.0654	0.855	> 20	0.976	> 10.2	0.98	> 16	0.914	> 5.12	0.904	> 50	0.533	5.04
IMR-5 (neuroblastoma, adherent)	0.977	> 0.2	0.982	> 5	0.276	0.168	0.48	0.0569	0.877	14.7	0.969	> 10.2	0.987	> 16	0.944	> 5.12	0.085	< 0.195	0.085	< 0.25
KU812 (chronic myeloid leukaemia, suspension)	0.868	0.156	0.978	> 5	0.599	1.17	0.305	0.0192	0.803	8.91	0.835	5.92	0.894	> 16	0.988	> 5.12	0.874	41.4	0.695	13.3
SU-DHL-16 (B-cell lymphoma, suspension)	0.946	0.198	0.988	> 5	0.518	0.709	0.187	0.0108	0.812	7.34	0.738	2.43	0.981	> 16	0.951	> 5.12	0.975	> 50	0.799	21.7
EB-3 (Burkitt lymphoma, suspension)	0.94	> 0.2	0.946	> 5	0.79	5.39	0.602	0.128	0.839	17	0.945	> 10.2	0.984	> 16	0.797	2.87	0.924	> 50	0.731	20.5

Source: the supplement of paper PMC4967469
